Test results taken from PubChem BioAssay (NCATS).
Where “and” joins values, the source holds several entries; their conditions need not be identical. Equal entries are not always repeated. Inconclusive results, whose numbers are uncertain, are shown with a selection of clear calls. Potencies of inconclusive entries are doubtful fits and often do not repeat. Calls of active or inactive are those of the source. Calls come from the whole dose curve; as a rule, active = well fitted curve in the direction sought with a large enough effect; inconclusive = small, poorly fitted or top-dose-only effect, or another doubt; inactive = no such curve, though single readings can be large; an effect the other way counts as inactive or inconclusive.

Key:
[1] = Viability qHTS for spleen associated tyrosine kinase inhibitor (SYKi) naive MV4-11 cells (AID 1963823); conditions: MV4-11 AML viability, CellTiter-Glo luminescence, 72 h; viability (% of control): at 45 µM (top of the series); note: nearly all actives have a fitted effect of over 40% in size
Outline: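 Read-out: CellTiter-Glo luminescence. Exposure: 72 hr, 37 C, 5% CO2, 95% humidity. Cells: MV4-11 without SYK inhibitor history, 500/well, qHTS format.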

[2] = Viability qHTS for spleen associated tyrosine kinase inhibitor (SYKi) drug resistant MV4-11 cells (AID 1963824); note: nearly all actives have a fitted effect of over 35% in size
Outline: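 SYK-inhibitor-resistant MV4-11 AML cells were seeded at 500 per well onto compound and cultured 72 hours (37 °C, 5% CO2). CellTiter-Glo was then added, and after 10 min at room temperature, luminescence gave viability.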

[3] = Quantitative highthroughput screen to assess conditional lethalithy of NOMO1 cells grown in RPMI1640 with untreated serum (RPMI+s) (AID 1963876); conditions: NOMO1 AML cells in RPMI+serum, CellTiter-Glo viability, 48 h; viability: at 45.8 µM (top of the series); note: nearly all actives have a fitted effect of over 35% in size;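 for Viability: 100% = DMSO wells and 0% = empty wells without cells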
Outline: (§1)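 Each medium arm—HPLM with 10% dialyzed FBS, or RPMI1640 with 5 mM glucose and 10% untreated or dialyzed FBS—was screened against an 11-point, 3-fold compound titration for 48 h at 37 °C, with CellTiter-Glo luminescence as endpoint.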

[4] = Quantitative highthroughput screen to assess conditional lethalithy of NOMO1 cells grown in Human Plasma-Like Medium with dialyzed fetal bovine serum (HPLM+ds) (AID 1963878); conditions: NOMO1 AML cells in HPLM+ds, CellTiter-Glo viability, 48 h; viability: at 45.8 µM (top of the series); note: nearly all actives have a fitted effect of over 35% in size;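 for Viability: 100% = DMSO wells and 0% = empty wells on each plate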
Outline: as §1

[5] = Quantitative highthroughput screen to assess conditional lethalithy of P12 Ichikawa cells grown in Human Plasma-Like Medium with dialyzed fetal bovine serum (HPLM+ds) (AID 1963879); conditions: Potency: viability; note: nearly all actives have a fitted effect of over 35% in size
Outline: as §1

[6] = Quantitative highthroughput screen to assess conditional lethalithy of P12 Ichikawa cells grown in RPMI1640 with dialyzed fetal bovine serum (RPMI+ds) (AID 1963880); conditions: Potency: P12-Ichikawa viability; note: nearly all actives have a fitted effect of over 35% in size;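 for Viability: 100% = DMSO wells and 0% = empty wells on each plate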
Outline: as §1

[7] = Cellular viability qHTS for adrenocortical cancer (ACC) cell line SW-13 (AID 1963989); conditions: SW-13 ACC cells viability, CellTiter-Glo, 48 h; activity (max response): stronger effect = lower value; note: nearly all actives have a fitted effect of over 65% in size;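 for activity (max response): cells grown in serum-free medium with ITS supplement; % is set by controls: 0 for no effect and ±100 for the full control effect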
Outline: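 Luminescent ATP read-out (CellTiter-Glo, 20 min at room temperature) measured metabolically competent SW-13 cells after 48 h compound treatment. Final concentrations spanned up to 46 uM; bortezomib served as positive control.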

[8] = Quantitative highthroughput screen to assess conditional lethalithy of P12 Ichikawa cells grown in RPMI1640 with untreated serum (RPMI+s) (AID 1963881); conditions: Potency: viability; note: nearly all actives have a fitted effect of over 35% in size;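 for Viability: 100% = DMSO wells and 0% = empty wells without cells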
Outline: as §1

[9] = Quantitative highthroughput screen to assess conditional lethalithy of SEM cells grown in RPMI1640 with unreated serum (RPMI+s) (AID 1963883); conditions: SEM B-ALL cells, CellTiter-Glo viability, 48 h; viability: at 45.8 µM (top of the series); note: nearly all actives have a fitted effect of over 35% in size;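 for Viability: 100% = DMSO wells and 0% = empty wells without cells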
Outline: as §1

[10] = Quantitative highthroughput screen to assess conditional lethalithy of SEM cells grown in RPMI1640 with dialyzed fetal bovine serum (RPMI+ds) (AID 1963884); conditions: SEM B-ALL cells, RPMI+dialyzed FBS, CellTiter-Glo viability, 48 h; viability: at 45.8 µM (top of the series); note: nearly all actives have a fitted effect of over 35% in size;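 for Viability: 100% = DMSO control wells and 0% = empty wells without cells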
Outline: as §1

[11] = Cellular viability qHTS for adrenocortical cancer (ACC) cell line NCI-H295R (AID 1963990); conditions: CellTiter-Glo ATP luminescence, 48 h; activity change, negative = viability loss: at 46.1 µM (top of the series); note: nearly all actives have a fitted effect of over 60% in size;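 for activity change, negative = viability loss: 0% = DMSO only wells and -100% = full killing with cytotoxic reference compound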
Outline: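 IC50 and maximal efficacy derive from four-parameter logistic modelling of titration curves, with reads scaled between DMSO-only wells (0%) and doxorubicin hydrochloride (100% inhibition). Compounds spanned up to 46 uM over 48 h.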

[12] = Quantitative highthroughput screen to assess conditional lethalithy of SEM cells grown in Human Plasma-Like Medium with dialyzed fetal bovine serum (HPLM+ds) (AID 1963882); note: nearly all actives have a fitted effect of over 35% in size
Outline: as §1
Potency is the fitted concentration of half-maximal effect; tags give direction and shape of the fitted curve.

Row | SMILES | Potency [1] | Potency [2] | Potency [3] | Potency [4] | Potency [5] | Potency [6] | Potency [7] | Potency [8] | Potency [9] | Potency [10] | Potency [11] | Potency [12] | activity (max response) [7]
1 | CC[C@@]1([C@@H]2O[C@@H]([C@H]3O[C@@](O)(CO)[C@H](C)C[C@H]3C)C[C@H]2C)CC[C@H]([C@]2(C)CC[C@]3(C[C@H](O)[C@@H](C)[C@@H]([C@@H](C)[C@@H](OC)[C@H](C)C(=O)O)O3)O2)O1 | inconclusive: 0.0456 µM [cytotoxic, full curve] | inconclusive: 0.0456 µM [cytotoxic, full curve] | inconclusive: 7.24 µM [cytotoxic, partial curve] | inconclusive: 0.512 µM [cytotoxic, full curve] | inconclusive: 2.29 µM [cytotoxic, full curve] | active: 2.29 µM | inconclusive: 0.637 µM [cytotoxic, full curve] |  |  |  |  |  | 
2 | Cc1cc(OCCCS(C)(=O)=O)cc(C)c1-c1cccc(COc2ccc3c(c2)OC[C@H]3CC(=O)O)c1 | inconclusive: 13.2 µM [cytotoxic, partial curve, poor fit] | inconclusive: 9.34 µM [cytotoxic, partial curve] | inconclusive: 33.2 µM [cytotoxic, single point] | inactive | inconclusive: 37.2 µM [cytotoxic, partial curve, poor fit] | inconclusive: 26.4 µM [cytotoxic, single point] | inconclusive: 25.1 µM [cytotoxic, partial curve] | inconclusive: 23.5 µM [cytotoxic, single point] | inconclusive: 37.2 µM [cytotoxic, single point] | inconclusive: 37.2 µM [cytotoxic, single point] | inconclusive: 28.2 µM [cytotoxic, single point] |  | 
3 | COc1ccc(C2CNC(=O)C2)cc1OC1CCCC1 (centres undefined) | inconclusive: 16.8 µM [cytotoxic, partial curve, poor fit] and active: 525 nM | inconclusive: 33.5 µM [cytotoxic, single point] and inactive | inactive | inactive |  |  |  |  |  |  |  |  | 
4 | CS(=O)(=O)c1cccc(CNc2nc(Nc3ccc4c(c3)CCC(=O)N4)ncc2C(F)(F)F)c1 | active: 0.105 µM | active: 0.164 µM | inconclusive: 23.5 µM [cytotoxic, single point] | inconclusive: 11.8 µM [cytotoxic, partial curve, poor fit] | inconclusive: 33.2 µM [cytotoxic, single point] |  | inconclusive: 28.2 µM [cytotoxic, single point] | inconclusive: 26.4 µM [cytotoxic, single point] | active: 5.26 µM | active: 6.62 µM | inconclusive: 35.5 µM [cytotoxic, single point] | active: 8.33 µM | 
5 | O=C(O)c1ccc(Nc2ncc3c(n2)-c2ccc(Cl)cc2C(c2c(F)cccc2F)=NC3)cc1 | inconclusive: 146 nM [cytotoxic, full curve] and inconclusive: 372 nM [cytotoxic, full curve] | active: 206 nM and inconclusive: 417 nM [cytotoxic, full curve] | inconclusive: 0.833 µM [cytotoxic, full curve] | active: 0.59 µM |  | inconclusive: 1.05 µM [cytotoxic, full curve] |  | active: 0.935 µM | inconclusive: 1.66 µM [cytotoxic, full curve] | inconclusive: 1.66 µM [cytotoxic, full curve] | inconclusive: 1.41 µM [cytotoxic, full curve] | inconclusive: 2.64 µM [cytotoxic, full curve] | 
6 | CO[C@@H]1[C@@H](OC(N)=O)[C@@H](O)[C@H](Oc2ccc3c(O)c(NC(=O)c4ccc(O)c(CC=C(C)C)c4)c(=O)oc3c2C)OC1(C)C | inactive | inactive and inconclusive: 26.3 µM [cytotoxic, single point] | inconclusive: 23.5 µM [cytotoxic, partial curve] |  |  | inactive |  |  |  |  |  | inactive | inactive: 15.7% and inactive: -3.94%
7 | Cc1onc(-c2ccccc2Cl)c1C(=O)N[C@@H]1C(=O)N2[C@@H]1SC(C)(C)[C@@H]2C(=O)O | inconclusive: 13.3 µM [cytotoxic, single point] and inactive | inconclusive: 21.1 µM [cytotoxic, single point] and inactive | inactive | inactive |  |  |  |  | inactive |  | inactive | inactive | 
8 | Cc1cc(C(C)Nc2ccccc2)c2nc(N3CCOCC3)cc(=O)n2c1 (centres undefined) | active: 9.2 µM and active: 5.9 µM | active: 10.3 µM and active: 9.34 µM | inactive |  |  | inactive |  |  | inconclusive: 26.4 µM [cytotoxic, single point] | inconclusive: 23.5 µM [cytotoxic, single point] |  | inactive | 
9 | COc1cc2nc(-c3ccc(N4CCN(C)CC4)cc3)nc(NCCN3CCOCC3)c2cc1OC | inconclusive: 1.66 µM [cytotoxic, full curve] | inconclusive: 2.35 µM [cytotoxic, full curve] | active: 1.66 µM |  | active: 5.26 µM | active: 2.64 µM |  | active: 2.96 µM | active: 0.469 µM | active: 0.372 µM |  |  | 
10 | CCOc1cc(C(C)(C)C)ccc1C1=N[C@@](C)(c2ccc(Cl)cc2)[C@@](C)(c2ccc(Cl)cc2)N1C(=O)N1CCN(CC(=O)N2CCOCC2)CC1 | inconclusive: 10.3 µM [cytotoxic, partial curve] | active: 11.5 µM | inactive | inconclusive: 0.0029 µM [cytotoxic, full curve, poor fit] |  |  | inconclusive: 15.8 µM [cytotoxic, single point] | inactive |  | active: 5.88 µM |  |  | 
11 | CN1CCN(CCCN2c3ccccc3Sc3ccc(C(F)(F)F)cc32)CC1 | inconclusive: 6.99 µM [cytotoxic, partial curve] and active: 11.9 µM and active: 18.6 µM | active: 6.99 µM and active: 21.1 µM and active: 11.8 µM | active: 1.87 µM |  | active: 13.2 µM | inconclusive: 23.5 µM [cytotoxic, partial curve] | active: 20.6 µM and active: 25.1 µM | active: 11.8 µM |  |  | active: 23.1 µM and inconclusive: 35.5 µM [cytotoxic, single point] | inconclusive: 0.0026 µM [rising, full curve, poor fit] | 
12 | CC(=O)OC1C(C)OC(Oc2c(-c3ccc(O)cc3)oc3cc(O)cc(O)c3c2=O)C(O)C1OC(C)=O (centres undefined) | inconclusive: 18.6 µM [cytotoxic, partial curve] | active: 20.9 µM | inconclusive: 29.6 µM [cytotoxic, partial curve, poor fit] |  | inactive | inactive | inconclusive: 35.5 µM [cytotoxic, partial curve, poor fit] | inactive | inconclusive: 0.0935 µM [cytotoxic, full curve, poor fit] | inactive |  |  | 
13 | COc1cccc(Nc2c(C(N)=O)cnc3c(C)cc(S(=O)(=O)c4cccc(C(=O)N(C)C)c4)cc23)c1 | inconclusive: 18.6 µM [cytotoxic, partial curve] | inconclusive: 18.6 µM [cytotoxic, partial curve] | inactive | inactive |  |  |  |  | inactive | inactive | inactive |  | inactive: 11.8%
